Screen size: about 71,000 compounds; about 1,800 (2.5%) were called active. This list was built around the results that the source calls inconclusive (neither active nor inactive); the mix of calls is not that of the screen. Calls come from the whole dose curve; as a rule, active = well fitted activation curve with a large enough effect in the signal ratio, with a control signal flat (not every such curve was filed as active); inconclusive = small, poorly fitted or top-dose-only effect, or effect the other way, or a change in a side signal; inactive = flat fitted curve, though single readings scatter; the % refers to the signal ratio. A potency beside an inconclusive call is a rough fit, not a confirmed value.
Assay: Cell signaling CRE-BLA (Fsk stim); for activity change, negative = inhibition: % of control where 0% means no effect
Settings: CHO CRE-bla reporter (cAMP response element driving beta-lactamase), forskolin EC10, beta-lactamase ratio; activity change, negative = inhibition: at 38.2 µM (top of the series) unless noted
Method in brief: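 CRE-bla CHO reporter cells treated with compound titration plus EC10 NKH 477 (water-soluble forskolin), incubated 3 h at 37 °C; CCF4 loading 2 h at room temperature, 460/530 nm emission ratio read, AC50 values derived for positive or negative modulators.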
Potency is the fitted concentration of half-maximal effect; tags give direction and shape of the fitted curve.

| SMILES | activity change, negative = inhibition | Potency |
| --- | --- | --- |
| O=C(CN1C(=O)CSc2ccccc21)Nc1ccccc1C(=O)N1CCOCC1 | inconclusive: -19.4% | – |
| NS(=O)(=O)c1ccc(CCNC(=O)NC2(C(F)(F)F)Oc3ccccc3O2)cc1 | inconclusive: -23.4% | – |
| COc1ccc(N2CCN(CCNC(=O)c3c(C)cc(=O)oc3C)CC2)cc1 | inconclusive: -26.7% | – |
| O=C(NCc1ccco1)c1cc2ccccc2c(=O)o1 | inconclusive: 2.23% | – |
| CCOC(=O)c1nnn(CC(=O)Nc2ccccc2OC)c1C(=O)OCC | inconclusive: -10.2% | – |
| NC/C=C\C(=O)O | – | inactive |
| O=C(NCC1CCCO1)C1CCN(S(=O)(=O)c2cccnc2)CC1 (stereo unspecified) | inconclusive: -0.941% | – |
| O=C(CSc1ncccc1-c1nc2ccccc2[nH]1)NC1CC1 | inactive: 2.83% | – |
| CCN(CC)S(=O)(=O)c1ccc2c(c1)nc(SCc1nc3ccsc3c(=O)[nH]1)n2CC | – | active: 5.01 µM |
| COC(=O)c1[nH]c2cc(C)ccc2c1NC(=O)CN1CCN(C(=O)c2ccco2)CC1 | inconclusive: -0.824% | – |
| CN(c1ccc(C(=O)NCCC2=CCCCC2)cc1)S(C)(=O)=O | inconclusive: 6.47% | – |
| c1ccc(Cn2c(SCc3cn4cccnc4n3)nnc2-c2ccco2)cc1 | – | inconclusive: 10 µM [rising, partial curve] |
| COC(=O)CNC(=O)c1cn(CC(C)C)c(=O)c2cc(OC)c(OC)cc12 | – | inconclusive: 10 µM [rising, single point] |
| COCCn1c(=O)c(C)nc2cnc(Nc3ccccc3)nc21 | – | active: 7.94 µM |
| COc1cc(CN2CCC(C(=O)N3CCN(c4ccccc4F)CC3)CC2)cc(OC)c1OC | inactive: -4.13% | – |
| O=C(CSc1nnc(-c2ccc(O)cc2)n1Cc1ccco1)N1CCc2ccccc2C1 | inconclusive: -8.32% | – |
| Cc1ccc(Nc2ncc3c(n2)CC(c2ccco2)CC3=O)c(C)c1 (stereo unspecified) | inactive: -8.46% | – |
| Cc1nnc(NC2=NCCC2)o1 | inconclusive: 12.5% | – |
| C=C(C)[C@H]1CC[C@]2(CO)CC[C@]3(C)[C@@H](CC[C@H]4[C@@]5(C)CC[C@@H](O)C(C)(C)[C@@H]5CC[C@@]43C)[C@H]12 | inactive: -3.81% [at 17.1 µM] | – |
| Cn1c(=O)c2c(nc(C(=N)SCC(=O)O)n2C)n(C)c1=O | inactive: -18.9% [at 7.6 µM] | – |
| CCOc1cc(C)c(C(C)C)cc1S(=O)(=O)NCc1ccccn1 | inactive: -5.82% | – |

| SMILES | activity change, negative = inhibition | Potency |
| --- | --- | --- |
| CC(C)OP(=O)(c1ccc(N(C)C)cc1)C(O)c1ccncc1 (stereo unspecified) | inactive: 19.5% | – |
| Oc1ccccc1C1Nc2cccc3cccc(c23)N1 | inactive: -6.56% | – |
| CCOC(=O)CON1C(=O)C(C)(C)N(OCC(=O)OCC)C(=O)C1(C)C | inconclusive: -4.6% [at 7.6 µM] | – |
| COC1=Cc2c(ccc3ccc(=O)oc23)OC1(C)C | – | inconclusive: 12.6 µM [rising, single point] |
| CC1(C)CC(=O)C(C=NCCN2CCNC2=O)=C(O)C1 | inconclusive: -6.63% | – |
| O=C(O)CNS(=O)(=O)c1ccc(Br)s1 | inconclusive: -2.19% | – |
| CC1CCCCN1C(=O)COc1ccc(NC(=O)c2ccco2)cc1 (stereo unspecified) | inconclusive: -14.5% | – |
| CCCCCSc1nc2c(c(=O)[nH]c(=O)n2C)n1CCc1ccccc1 | – | active: 2.51 µM |
| CCCC(c1nnnn1C(C)(C)CC)N(CCCO)Cc1cc2cc(C)cc(C)c2[nH]c1=O (stereo unspecified) | inconclusive: 17.8% | – |
| CCc1nc2ccccc2n(CCOCCn2c(=O)c(CC)nc3ccccc32)c1=O | inactive: 0.559% | – |
| Oc1ccc(N=Cc2ccc(-c3cccs3)s2)cc1 | inconclusive: -8.16% [at 7.6 µM] | – |
| Cc1ccc(NC(=O)COC(=O)C2=COCCO2)cc1 | – | inconclusive: 3.98 µM [falling, single point] |
| Cc1cc(C)nc(N2CCN(c3ncnc4c3oc3ccccc34)CC2)n1 | inconclusive: 8.4% | – |
| O=C(Nc1ccccc1N1CCCCC1)c1ccccc1F | – | inconclusive: 10 µM [rising, partial curve] |
| CNC1=C(Cl)C(=O)c2ccncc2C1=O | inconclusive: -6.25% | – |
| COc1ccccc1C(=O)N1CCN(C2CCN(Cc3ccccc3)CC2)CC1 | inconclusive: -11% | – |
| CC1(c2ccc(Cl)cc2Cl)OCC(Cn2ccnc2)O1 (stereo unspecified) | – | inconclusive: 10 µM [rising, single point] |
| CCN1CCN(Cc2nc3c(c(=O)n(C)c(=O)n3C)n2Cc2cccc3ccccc23)CC1 | inactive: 1.29% | – |
| Cc1ccc(C(C(=O)NCc2ccco2)N(CCc2ccccc2)C(=O)Cn2nnc3ccccc32)o1 (stereo unspecified) | inactive: -16.4% | – |
| COc1nc(Nc2cccc(C(F)(F)F)c2)nc(OC)n1 | – | inconclusive: 10 µM [rising, partial curve] |
